{"source": "PubChem BioAssay AID1794770", "about": "(DTP/NCI, 2022)", "system": "RXF-631 renal", "experiment": "NCI-60 one-dose screen, 48 h (100 = growth as untreated, 0 = no growth, -100 = all killed)", "conditions": "2.5 mM", "description": "Growth inhibition of the RXF-631 human tumor cell line is measured as a screen for anti-cancer activity. Cells are grown in 96 well plates and exposed to the test compound for 48 hours. Compounds are tested at a single concentration, which is 10^-5 M for most compounds. The reported endpoint is percent growth (GI% or GIPRCNT), where numbers from 0 - 100% represent growth inhibition, and numbers from -100% - 0 represent cell death. For example, a value of 40 represents 60% growth inhibition. A value of 0 means no net growth occurred over the course of the experiment. A value of -40 indicates 40% of cells at the beginning of the experiment died by the end of the experiment. A value of -100 means all cells are dead at the end of the experiment.\nNCI-60 Human Tumor Cell Lines Screen was performed using the standard one-dose NCI protocol, which is described in more detail at https://dtp.cancer.gov/discovery_development/nci-60/default.htm.\nCompounds with GIPRCNT values below 10 were considered active. Activity score was based on GIPRCNT using the following formula: […]\nScore is 0 for GIPRCNT values of 100 or above, 50 for GIPRCNT values of 0, and 100 for GIPRCNT values of -100.", "note": "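The endpoint reported here, percent growth, reads 100 for growth as untreated, 0 for no net growth and -100 for all cells dead.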 A number of entries come with more than one value. Only these are listed. An entry can have further records. This drug was run again and again over the years, at the concentration stated with the values; one value stands for one run."}
{"smiles": "O=c1[nH]cc(F)c(=O)[nH]1", "values": [{"measurement": "growth", "setting": "runs of 1991", "value": "14.2, 27.6, 30.7, 26, 20.7, 18.9, 27, 20.9, 11.7, 21.4, 35.4, 14.3, 14.1, 16.4, 22.7, 34.1%"}, {"measurement": "growth", "setting": "runs of 1992", "value": "18.9, 17.7, 10.2, 8.42, 16.1, 15.1, 26.8, 11.8, 27.8, 16.7, 61.4, 18.2, 29.4, 10.4, 31.7, 29.2, 33.7, 14.4, 44.4, 14, -38.9, 13, 32.2, 13.9, 2.31, 6.07%"}]}
